Results published in the BET-seq Pho4 binding data (Le et al. 2018).
The list shows a part of the results. Values were computed here from the reads of four pooled replicates and scatter widely.

target: T1, Pho4 (S. cerevisiae) (UniProt P07270); assay: relative binding free energy (BET-seq); higher = weaker binding; details: reference: library average
T1 sequence: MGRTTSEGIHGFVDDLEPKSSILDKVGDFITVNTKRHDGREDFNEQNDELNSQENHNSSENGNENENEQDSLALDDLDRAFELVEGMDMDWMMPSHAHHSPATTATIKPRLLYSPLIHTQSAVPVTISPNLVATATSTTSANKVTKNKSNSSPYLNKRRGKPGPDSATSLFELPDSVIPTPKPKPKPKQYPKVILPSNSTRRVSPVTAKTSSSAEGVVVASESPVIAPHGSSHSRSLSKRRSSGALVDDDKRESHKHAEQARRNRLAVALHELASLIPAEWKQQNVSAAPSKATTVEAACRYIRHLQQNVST

Relative binding free energy, -0.06 kcal/mol:
CGTGTCACGTGGGACG
ACGTGCACGTGTTGTG
TATTGCACGTGGAAGA
GTTAGCACGTGCGTGA
ATCTGCACGTGGCAGG
TTTGGCACGTGTTGGA

Relative binding free energy, 0.37 kcal/mol:
AGGGTCACGTGAAATT
ATTCTCACGTGATGTA
GTTTTCACGTGTCAAT

Relative binding free energy, 0.12 kcal/mol:
TTTCGCACGTGTTTCT

Relative binding free energy, 0.11 kcal/mol:
GTCTGCACGTGTTTTT
GTGGGCACGTGTCGGC
TATCTCACGTGGGTAT
TGATTCACGTGCTAGT
AGTGGCACGTGAGGGA
GTCGTCACGTGGTGAG

Relative binding free energy, -0.17 kcal/mol:
GCTGGCACGTGGGATA
TAATGCACGTGGGTGG
GCGTGCACGTGCTGGT

Relative binding free energy, 0.32 kcal/mol:
ATTTTCACGTGATCGG

Relative binding free energy, 0.28 kcal/mol:
CTATTCACGTGTTTAT
TTTATCACGTGAGTCT

Relative binding free energy, -0.19 kcal/mol:
CTAGGCACGTGGTTAA
CATAGCACGTGGGGTT

Relative binding free energy, -0.04 kcal/mol:
GTGAGCACGTGGTGGA
GTGGGCACGTGGATTA

Relative binding free energy, 0.23 kcal/mol:
GAAGTCACGTGTCGTT
GATTGCACGTGAGTGT

Relative binding free energy, -0.14 kcal/mol:
TTGAACACGTGGGTGT
TGAGACACGTGGGTAG

Relative binding free energy, -0.07 kcal/mol:
ATGTACACGTGTCATG
CGTAGCACGTGGAAGT
GGAGGCACGTGATCGG
GGGTGCACGTGCTTTG

Relative binding free energy, -0.1 kcal/mol:
TGGGCCACGTGCTGAG
TATTGCACGTGGGACG

Relative binding free energy, 0.4 kcal/mol:
TTTTTCACGTGCCGAG
TGGTTCACGTGATGAA
TACTTCACGTGAATGT

Relative binding free energy, 0.21 kcal/mol:
GGTCACACGTGTTAGA
GTTATCACGTGATTTG
TCGTTCACGTGGGGAA
GAGGTCACGTGTTGGC

Relative binding free energy, -0.32 kcal/mol:
GTTACCACGTGGGTGT

Relative binding free energy, 0.51 kcal/mol:
GAGTTCACGTGAGAAT

Relative binding free energy, 0.02 kcal/mol:
AGGTACACGTGATGGA
TGCGGCACGTGAGTTA
TGTTCCACGTGTTCTT

Relative binding free energy, 0.01 kcal/mol:
TATTGCACGTGGATTA
TATGGCACGTGTTAGG
TTAAACACGTGTAGTA

Relative binding free energy, 0.07 kcal/mol:
GTTAACACGTGTTGTA
GGGTACACGTGGGAGT
TAGGCCACGTGATCGG
GGTGGCACGTGTAATA
AGGGTCACGTGACTTT
GAAGACACGTGGAGTG
GCGGTCACGTGGTTGC
TACGACACGTGTGTTT
TATTGCACGTGTAGTC

Relative binding free energy, -0.12 kcal/mol:
AGGGGCACGTGGAGTT

Relative binding free energy, 0.14 kcal/mol:
GCAGTCACGTGTTGGC
TAGATCACGTGGCGAG
GAATGCACGTGAGTGT
GGAGTCACGTGTGTAG
AGAGTCACGTGTGGTC

Relative binding free energy, -0.08 kcal/mol:
GCGGGCACGTGGTGCT
AGCAGCACGTGGCTGG
TGGGCCACGTGTTAGT
AGGTGCACGTGTCAGG
TGAAGCACGTGTGTCG

Relative binding free energy, 0.36 kcal/mol:
TAGTACACGTGAGGAA
GATGTCACGTGAAAGT

Relative binding free energy, 0.17 kcal/mol:
GAGGTCACGTGTTTGC
TGATACACGTGATTTT
TACGGCACGTGGATGT
TGTTTCACGTGGGCGT
CAGTTCACGTGGTGTG
TGTATCACGTGTGCTC
GTTGGCACGTGATGAC

Relative binding free energy, -0.22 kcal/mol:
TATGGCACGTGATATA
GTGCCCACGTGGTGTG

Relative binding free energy, 0.48 kcal/mol:
TGGATCACGTGAATGA

Relative binding free energy, 0.26 kcal/mol:
ACTTTCACGTGAATGT
GCCTTCACGTGTGGTG

Relative binding free energy, -0.21 kcal/mol:
CGTGGCACGTGCGGAT

Relative binding free energy, -0.09 kcal/mol:
ACTATCACGTGGGTTG
TGGTGCACGTGGGACC
ATGAGCACGTGTCAGG
GTGTGCACGTGGGCTA
ACGCGCACGTGTGGGG

Relative binding free energy, -0.03 kcal/mol:
CCTGGCACGTGTGGTG
CTGCTCACGTGGGGGT
CGTGTCACGTGTTCGT

Relative binding free energy, 0.27 kcal/mol:
GGTCACACGTGAGTTG
ATGTTCACGTGTCGGC

Relative binding free energy, 0.29 kcal/mol:
TAGTTCACGTGGATGG
GTTTTCACGTGCATTT
GTGTACACGTGAGGAT

Relative binding free energy, 0.03 kcal/mol:
ATAAGCACGTGAAGGT
AAAAACACGTGGTGGG
TTGGGCACGTGATTGT
TAAGACACGTGCAGGG
AGACGCACGTGAAGGG
TTCTGCACGTGTAGCG

Relative binding free energy, -0.02 kcal/mol:
GGGGACACGTGTGCGT
GCGGGCACGTGTCGGA
AGTAGCACGTGCATGT
CGCGGCACGTGTGTGT
ATTGACACGTGTAGTA

Relative binding free energy, -0.11 kcal/mol:
TGCACCACGTGGTGTT
TTAGGCACGTGAGTCT
GTTAGCACGTGGGTAC
GGGAGCACGTGGTTAT
TCTGGCACGTGGTAAG

Relative binding free energy, 0.47 kcal/mol:
GGTTTCACGTGATTTG

Relative binding free energy, -0.2 kcal/mol:
AGTAGCACGTGTATGG
GACGGCACGTGGGTAG

Relative binding free energy, 0 kcal/mol:
GGTCCCACGTGGCGGT
GTGGGCACGTGCTAAT
GCCAGCACGTGTAGGG
GTGGACACGTGGCCGG

Relative binding free energy, 0.04 kcal/mol:
AGGGGCACGTGTAAAG
TTAACCACGTGTATGG
TGATGCACGTGTAGTT
TGTAACACGTGCGTAT

Relative binding free energy, 0.09 kcal/mol:
GCTGTCACGTGGTGTG
TGTCACACGTGTTGAA
CTTGTCACGTGTTGGC

Relative binding free energy, -0.27 kcal/mol:
AATGGCACGTGGCGGC

Relative binding free energy, -0.01 kcal/mol:
GCGGTCACGTGCTAGG
GGAGGCACGTGATATG
AGTTCCACGTGTGTGG
TGCTCCACGTGGGAGT
TTATACACGTGGTTGG
ATGCTCACGTGGCGTG
GAGGACACGTGGGGCA
ATCGGCACGTGTCGTT

Relative binding free energy, 0.18 kcal/mol:
TTGTACACGTGATTGC
GAGTACACGTGTTTAT
AACGGCACGTGAGGCG
AATTTCACGTGTTTGG

Relative binding free energy, 0.49 kcal/mol:
GGGTTCACGTGGAATC

Relative binding free energy, -0.18 kcal/mol:
GTAGGCACGTGGTGCG
AATAGCACGTGGGATT

Relative binding free energy, 0.38 kcal/mol:
TAGTTCACGTGTGTGT

Relative binding free energy, 0.2 kcal/mol:
TAATTCACGTGGGTGA
AAGTTCACGTGTGCGG
TCTTGCACGTGTGATT
GGGGTCACGTGAGTCT
GTTTTCACGTGGGCAT

Relative binding free energy, -0.25 kcal/mol:
CGGAGCACGTGGGGGC

Relative binding free energy, -0.24 kcal/mol:
TAAACCACGTGGGGTG
CTTAGCACGTGCTGGG

Relative binding free energy, -0.05 kcal/mol:
AGCGGCACGTGTTAGA
TTGTGCACGTGGTTGG
GCCTACACGTGGGGGT
TATGTCACGTGGAGAA
ATGCGCACGTGTGGTG
TGTGCCACGTGTAGAA
ATTGGCACGTGTACTA

Relative binding free energy, 0.46 kcal/mol:
GTTATCACGTGAGGTT

Relative binding free energy, 0.22 kcal/mol:
GCGGTCACGTGTCGGA
GTTGTCACGTGGTTCT
GGGATCACGTGAGTGC
GTGTTCACGTGTCCGT

Relative binding free energy, -0.13 kcal/mol:
CAAGTCACGTGGGGTG
TTTCGCACGTGGGTTC

Relative binding free energy, 0.43 kcal/mol:
TCATTCACGTGAGGAT
GCATTCACGTGATTGA

Relative binding free energy, 0.33 kcal/mol:
CGGTTCACGTGGTTAG
GGTTGCACGTGAAGAA

Relative binding free energy, 0.1 kcal/mol:
GCGGGCACGTGTTGGT
TTGGTCACGTGCAGTA
AAAGACACGTGTGCGG
GGTTGCACGTGTGCCT
GGGCACACGTGGAGTG
TCGTACACGTGGCGGG

Relative binding free energy, 0.13 kcal/mol:
TTTAGCACGTGTTGGG
TTTGGCACGTGTAAGA
TGGTACACGTGTGATG

Relative binding free energy, -0.31 kcal/mol:
AGACGCACGTGGGTGT

Relative binding free energy, -0.23 kcal/mol:
TACGTCACGTGGGTTG

Relative binding free energy, 0.3 kcal/mol:
GGATTCACGTGTTTTC
GAGATCACGTGGTTGG

Relative binding free energy, 0.25 kcal/mol:
TAGTTCACGTGGTCCT
TGTCTCACGTGAGCGG

Relative binding free energy, 0.08 kcal/mol:
CTGGACACGTGTAATG
TGGCTCACGTGGCGTG
CTTGTCACGTGTGTGG
TGGTACACGTGTATTA

Relative binding free energy, 0.05 kcal/mol:
GTAGTCACGTGGAAGT
TTAGACACGTGGGATT
ATACTCACGTGGGGTA
GGTGTCACGTGGGACG
TGAGCCACGTGAGGTG
GTGATCACGTGGGATG
CTTATCACGTGGTGGA

Relative binding free energy, 0.19 kcal/mol:
CAATTCACGTGTTTAT
GTTGTCACGTGTCGTT
ATGGTCACGTGATTAT
TTGTGCACGTGAGGGA
GGCGACACGTGATAGT
ATTTCCACGTGTTAGA

Relative binding free energy, 0.16 kcal/mol:
AAAGGCACGTGAGGGA
GGTGTCACGTGGTTTA
GTGAGCACGTGAGGTC
GGTGTCACGTGTCTTT

Relative binding free energy, -0.29 kcal/mol:
CTGGGCACGTGGGCCG

Relative binding free energy, -0.15 kcal/mol:
ATGGCCACGTGTTGAT
TTACACACGTGTTGTG
CGGGTCACGTGGGCAT
GTGCGCACGTGTGGCA
AAAGGCACGTGTGTGT
AGAGGCACGTGTGTGG
TTGGGCACGTGGGGGG

Relative binding free energy, 0.35 kcal/mol:
GAAGGCACGTGAATTT

Relative binding free energy, 0.31 kcal/mol:
TGTTTCACGTGAATTT

Relative binding free energy, 0.06 kcal/mol:
ATTGTCACGTGCTGTG
AATTGCACGTGTGGTC
TTTGTCACGTGTTGAT
GTTTGCACGTGATTCG

Relative binding free energy, 0.15 kcal/mol:
CTTGACACGTGTCGGG
TTTGGCACGTGAGACA
AAGGTCACGTGAGGGC
GTGTACACGTGTTCGC
TCAGTCACGTGGAGGT
TGGGACACGTGAGTCT
TAGGCCACGTGGAAAG
ATAATCACGTGTGTAA
